The values that follow come from the RNAGym collection of RNA variant scans (doi:10.7554/elife.90254).

Read counts are not given, so values of variants with three or more changes are uncertain.

Sequences and labels used below:
B1: OR4K15 (parent)
chain: GUUAACGGUCAUAGGCCAUGGAAACUAGGAGCACCAUUUCGCUGCCAGUGAAGAAAUGAACAAAGAAAAUCUGGGCCAGGCAGGCAUCAAAAGAAAUAGUCUUGCGCUCAACCAGAAAGUCUGUAAUCAUUUUAAGGGUA

This data set covers variants of B1. Description: self-cleavage, relative activity (ratio to wild type); higher = more cleavage; in vitro, sequencing; the parent is a self-cleaving ribozyme.
On to GUUAACGGUCAUAGGCCUUGGGAACUAGGAGCACCAUUACGCUGCCAGUGAAGAAAUGAACAAAGAAAAUCUGGGCCAGGCAGGCAUCAGAAGAAAUAGUCUUGCGCUCAACCAGAAAGUCUGUAAUCAUUUUAAGGGUA [A18U A22G U39A A90G], for which the self-cleavage stood at 0.98.

Turning to GUUAACGGUCAUAGGCCUUGGGAACUAGGAGCACCAUUUCGCUGCCAGUGAAGAAAUGAACAAAGAAAAUCUGGGCCAGGCAGGCAUCAAAAGAAAUAGUCUUGCGCUCAACCAGAAAGUCUGUAAUCGUUUUAAGGGUA [A18U A22G A129G], the self-cleavage worked out at 0.57. The value for GUUAACGGUCAUAGGCCUUGGAAGCUUGGAGCACCAUUUCGCUGCCAGUGAAGAAAUGAACAAAGAAAAUCUGGGCCAGGCAGGCAUCAAAAGAAAUAGUCUUGCGCUCAACCAGAGAGUCCGUAAUCAUUUUAAGGGUA [A18U A24G A27U A117G U122C] was 1.35; that for GUUAACGGUCAUAGGCCUUGGAGACUAGGAGCACCAUUUCGCCGCCAGUGAAGAAAUGAACAAAGAAAAUCUGGGCCAGGCAGGCAUCAAAAGAAAUAGUCUUGCGCUCAACCAGAAAGUCUGUAAUCAUUUUAAGGGCA [A18U A23G U43C U139C] was 1.16; that for GUUAACGGUCAUAGGCCGUGGAAACUAGGAGCACCAUUUCGCUGCCAGGGAAGAAAUGAACAAAGAAAAUCUGGGCCAGGCAGGCAUCAAAGGAAAUAGUCUCGCGCUCAACCAGAGAGUCUGUAAUCAUUUUAAGGGUA [A18G U49G A92G U103C A117G] was 0.5. The value for GUUAACGGUCAUAGGCCGUGGAAACUAGGAGCACCAUCUCGCUGCCAGUGAAGAAAUGAACAAAGAAAAUCUGGGCCAGGCAGGCAUCAAAAGAAAUAGCCUUGCGCUCAACCAGAAAGUCUGUAAUCAUUUUAAGGGUA [A18G U38C U100C] was 0.76; that for GUUAACGGUCAUAGGCCUUGGGAACUAGGAGCACCAUUUCGCUGCCAGUGAAGAAAUGAACAAAGAAAAUCUGGGCCAGGCAGGCAUCAAAAGAAGUAGUCUUGCGCUCAACCAGAAAGUCUGUAAUCAUUUUAAGGGUA [A18U A22G A96G] was 1.31. The value for GUUAACGGUCAUAGGCCGUGGAAACUAGGAGCACCAUUUCGCUGCCAGUGAAGAAAUGAACAAAGAAAACCUGGGCCAGGCGGGCAUCAAAGGAAAUAGUCUUGCGCUCAACCAGAAAGUCUGUAAUCAUUUUAAGGGUA [A18G U70C A82G A92G] was 0.36; that for GUUAACGGUCAUAGGCCUUGGAACCUAGGAGCACCAUUUCGCUGCCAGUGAAGAAAUGAACAAAGAAAAUCUGGGCCAGGCAGGCAUCAAAAGAAAUAGUCUUGCGCUCAACCAGAGAGUCUGUAAUCAUUUUAAGGGUA [A18U A24C A117G] was 2.12; that for GUUAACGGUCAUAGGCCUUGGAGACUAGGAGCACCAUUUCGCUGCCAGUGAAGAAAUGAACAAAGAAAAUCUGGGCCAGGCAGGCAUCAAAAGAAGUAGUCCUGCGCUCAACCAGAAAGUCUGUAAUCAUUUUAAGGGUA [A18U A23G A96G U102C] was 1.13.

Regarding GUUAACGGUCAUAGGCCUUGGAGACUAGGAGCACCAUUUCGCUGCCAGUGAAGAAAUGAACAAAGAAAAUCUGGGCCAGGCAGGCAUCAAAAGAAAUAGUCUUGCGCUCGACCAGAAAGUCUGUAAUUAUAUUAAGGGUA [A18U A23G A110G C128U U131A], the self-cleavage was 0.25. The value for GUUAACGGUCAUAGGCCGUGGAAACUAGGAGCACCAUUUCGCUGCCAGUGAAGAAAUGAACAAAGAAAAUCUGGGCCAGGCAGGCACCGAAAGAAAUAGUCUUGCGCUCAACCAGAAAGUCUGUAAUCAUUUUAAGGGUA [A18G U87C A89G] was 1.44; that for GUUAACGGUCAUAGGCCGUGGAAACUAGGAGCACCAUUUCGCUGCCAGUGAAGAAAUGAACAAAGAAAAUCUGGGCCAGGCAGGCAUCAAAAGAAAUAGUCUUGCGCUCAACCAGAAAGUCUGAAAUCACUUUAAGGGUA [A18G U124A U130C] was 0.16; that for GUUAACGGUCAUAGGCCUUGGAGACUAGGAGCACCAUUUCGCUGCCAGUGAAGAAAUGAACAAAGAAAAUCUGGGCCAGGCAGGCAUCAAAAGAGAUAGUCUUGCGCUCAACCAGAAAGUCUGUAAUCAUUUUAAGGGUA [A18U A23G A95G] was 1.34.

As to GUUAACGGUCAUAGGCCUUGGAAGCUAGGAGCACCAUUUCGCUGCCAGUGAAGAAAUGAACAAAGAAAAUCUGGGCCAGGCAGGCAUCAAAAGAAAUAGUCUCGCGCUCAACCAGAAAGUCUGUAAUCAUUUUAAGGGUA [A18U A24G U103C], the self-cleavage was 1.16. The result for GUUAACGGUCAUAGGCCGUGGAAACUAGGAGCACCAUUUCGCUGCCAGUGAAGAAACGAACAAAGAAAAUCUGGGCCAGGCAGGCAUCAAAAGGAAUAGUCUUGCGCUCUACCAGAGAGUCUGUGAUCAUUUUAAGGGUA [A18G U57C A94G A110U A117G A125G] reads 1.08. The result for GUUAACGGUCAUAGGCCGUGGAAACUAGGAGCACCAUUUCGCUGCCAGUGAAGAAAUGAACAAAGAAAACCUGGGCCAGGCAGGCAUCAAAAGAAAUAGUCUUGCGCUCAACCAGGAAGUCUGUAAUCAUUACAAGGGUA [A18G U70C A116G U132A U133C] reads 1.69. Turning to GUUAACGGUCAUAGGCCUUGGAUACUGGGAGCACCAUCCCGCUGCCAGUGUAGAAAUGAACAAAGAAAAUCUGGGCCAGGCAGGCAUCAAAAGAAAUAGUCUUGCGCUCAACCAGAAAGUCUGUAACCAUUUUAAGGGUA [A18U A23U A27G U38C U39C A51U U127C], the self-cleavage is 1.04. The result for GUUAACGGUCAUAGGCCGUGGAAACUAGGAGCACCAUUUCGCAGCCAGUGAAGAAAUGAACAAGGAAAAUCUGGGCCAGGCAAGCAUCAAAAGAAAUAGUCUUGCGCUCAACCAGAAAGUCUGUAAUCAUUUUAAGGGUA [A18G U43A A64G G83A] reads 1.78; that for GUUAACGGUCAUAGGCCGUGGAAACUAGGAGCACCAUUCCGCUGCCAGUGAAGAAGUGAACAAAGAAAAUCUGGGCCAGGCAGGCAUCAAAUGAAAUAGUCUUGCGCUCAACCAGAAAGUCUGUAAUCAUUUUAAGGGUA [A18G U39C A56G A92U], 1.2; that for GUUAACGGUCAUAGGCCGUGGAAACUAGGAGCACCAUUACGCUGCCAGUGAAGAAAUGAACAAAGAAAAUCUGGGCCAGGCAGGCAUCGGAAGAGAUAGUCUUGCGCUCAACCAGAAAGUCUGUAAUCAUUUUAAGGGUA [A18G U39A A89G A90G A95G], 1.54.

Take GUUAACGGUCAUAGGCCUUGGAGUCUAGGAGCACCAUUUCGCUGCCAGUGAAGAAAUGAACAAAGAAAAUCUGGGCCAGGCAGGCAUCAAAAGAAAUAGUCUUGCGCUCAACCAGAAAGUCUGUAAUCAUUUUAAGGGUA [A18U A23G A24U]: the self-cleavage is 1.02. The value for GUUAACGGUCAUAGGCCGUGGAAACUAGGAGCACCAUUUCGCUGCCAGUGAAGAAAUGAACAAAGAAAAUCUGGGCCAGGCAGGCACCAAAAGAAAUAGUCUUGCGCUCAACUAGAAAGUCUGUGAUCAUUUUAAGGGUA [A18G U87C C113U A125G] was 0.01; that for GUUAACGGUCAUAGGCCGUGGAAACUAGGAGCACCAUUCCGCUGCCAGUGAAGAAAUGAACAAAGAAGAUCUGGGCCAGGCAGGCACCAAAAGAAAUAGUCUUGCGCUCAACCAGAAAGUCUGUAAUCAUUUUAAGGGUA [A18G U39C A68G U87C] was 1.26; that for GUUAACGGUCAUAGGCCUUGGUAACUAGGAGCACCAUUUCGCUGCCAGUGAAGAAAUGAACAAAGAAAUUCUGGGCCAGGCAGGCAUCAAAAGAAAUAGUCUUGCGCUCAACCAGAAAGUCUGUAAUCAUUUUAAGGGUA [A18U A22U A69U] was 1.69. For the variant GUUAACGGUCAUAGGCCGUGGAAACUAGGAGCACCAUUUCGCUGCCAGGGAGGAAAUGAACAAAGAAAAUCUGGGCCAGGCAGGCAUCAAAAGAAAUAGUCUCGCGCUCAACCAGGAAGUCGGUAAUCAUUUUAAGGAUA [A18G U49G A52G U103C A116G U122G G138A], the self-cleavage was 0.21. For GUUAACGGUCAUAGGCCUUGGGAACUAGGAGCACCAUUUCGCUGCCAGUGAAGAAAUGAACAAAGAAAAUCUGGGCCAGGCAGGCAUCAAAAGAAAUAGCCUUGCGCUCAACCAGAAAGUCUGUAAUCAUUUUAAGGGUA [A18U A22G U100C], the self-cleavage was 1.57. Regarding GUUAACGGUCAUAGGCCGUGGAAACUAGGAGCACCAUUCCGCUGCCAGUGUAGAAAUGAACAAGGAAAAUCUGGGCCAGGCAGGCAUCAAAAGAAAUAGUCUUGCGCUCAACCAGGAAGUCUGUAAUCAUUUUAAGGGUA [A18G U39C A51U A64G A116G], the self-cleavage is 1.55.

Consider GUUAACGGUCAUAGGCCGUGGAAACUAGGAGCACCAUUUCGCUGCCAGUGAAGAAAUGAACAAAGAAAACCUGGGCCAGGCAGGCAUCAAAAGAAAUAGUCUUGCGCUCAACCAGAAAGCCUGUAAUCAUUUUAAGGGUA [A18G U70C U120C], for which the self-cleavage amounted to 0.27.

Regarding GUUAACGGUCAUAGGCCGUGGAAACUAGGAGCACCAUUUCGCCGCCAGUGAAGAAAUGAACGAAGAAAAUCUGGGCCAGGCAGGCAUCAAAAGAAAUAGACUUGCGCUCAACCAGAAAGUCUGUAAUCAUUUUAAGGGUA [A18G U43C A62G U100A], the self-cleavage came to 0.64. Regarding GUUAACGGUCAUAGGCCGUGGAAACUAGGAGCACCAUUUCGCAGCCAGUGAAGAAAUGAACAAAGAAAGUCUGGGCCAGGCAGGCAUCAAAAGAAAUAGUCUUGCGCCCAACCAGAAAGUCUGUAAUCAUUUUAAGGGUA [A18G U43A A69G U108C], the self-cleavage was 0.05. The value for GUUAACGGUCAUAGGCCGUGGAAACUAGGAGCACCAUUUCGCCGCCAGUGAAGAAAUGAACAAUGAAAAUCUGGGCCAGGCAGGCAUCAGAAGAAAUAGUCUUGCGCUCAACCAGAAAGUCUGUAAUAAUUUUAAGGGUA [A18G U43C A64U A90G C128A] was 0.77; that for GUUAACGGUCAUAGGCCGUGGAAACUAGGAGCACCAUUUCGCUGCCAGUGAAGAAAUGAACAAAGAAAACCUGGGCCAGGCAGGCAUCAAAAGAAAUAGUCUUGCGCCCAACCAGAAAGUCUGUAAUCAUUUUAAGGGUA [A18G U70C U108C] was 0.01; that for GUUAACGGUCAUAGGCCUUGGGAGCUAGGAGCACCAUUUCGCUGCCAGUGAAGAAGUGAACAAAGAAAAUCUGGGCCAGGCAGGCAUCAAAAGAAAUAGUCUUGCGCUUAACCAGAAAGUCUGUAAUCAUUUUAAGGGUA [A18U A22G A24G A56G C109U] was 0.55. The result for GUUAACGGUCAUAGGCCUUGGAGACUAGGAGCACCAUUUCGCUGCCAGUGAAGAAAUGAACAAAGAAAAUCUGGGCCAGGCAGGCACCAAAAGAAAUAGUCUUGCGCUCAACCAGAAAGUCUGUAAUCAUUUUAAGGGUA [A18U A23G U87C] reads 0.93; that for GUUAACGGUCAUAGGCCGUGGAAACUAGGAGCACCAUUUCGCUGCCAGUGAAGAAAUGAACAAAGAAAAUCUGGGCCAGGCAGGCAUCAAAAGAAAUAGUCUUGCGCUCAACCAGAAAGCCUGUAACCAUUUUAAGGGUA [A18G U120C U127C], 0.32. The value for GUUAACGGUCAUAGGCCGUGGAAACUAGGAGCACCAUUUCGCAGCCAGUGAAGAAACGAACAAAGAAAAUCUGGGCCGGGCAGGCAUCAGAAGAAAUAGUCUUGCGCUCAACCAGAAAGUCUGUAAUCAUUUUAAGGGUA [A18G U43A U57C A78G A90G] was 0.38; that for GUUAACGGUCAUAGGCCGUGGAAACUAGGAGCACCAUUUCGCGGCCAGUGAAGAAAUGGACAAAGAAAAUCUGGGCCAGGCAGGCAUCAAAAGAAAUAGUCUUGCGCUCAACCAGGAAGUCUGUAAUCCUUUUAAGGGUA [A18G U43G A59G A116G A129C] was 0.49; that for GUUAACGGUCAUAGGCCGUGGAAACUAGGAGCACCAUUUCGCAGCCAGUGAAGAAAUGUACAAAGAAAAUCUGGGCCAGGCAGGCAUCAAAAGAAAUAGUCUUGCGCUCAACCAGAAAGUCUGUAAUCAUUUUAAGGGUA [A18G U43A A59U] was 1.09. In the case of GUUAACGGUCAUAGGCCGUGGAAACUAGGAGCACCAUUUCGCCGCCAGUGAAGAAAUGAACAAAGAAGAUCUGGGCCAGGCAGGCAUCAAAAGAAAUAGUCUUGCGCUCAACCAGAAAGUCUGUAAUCAUUUUAAGGGUA [A18G U43C A68G], the self-cleavage came to 1.24. The value for GUUAACGGUCAUAGGCCUUGGAGACUAGGAGCACCACUUCGCUGCCAGUGAAGAAAUGAACAAAGAAAAUCUGGGCCAGGCAGGCAUCAAAAGAAAUAGUCUUGCGCUCAACCAGAAAGUCUGUAAUCAUUUUAAGGGUA [A18U A23G U37C] was 1.34.
